The results in this text go back to ChEMBL document CHEMBL4888484, “Replenishing the malaria drug discovery pipeline: Screening and hit evaluation of the MMV Hit Generation Library 1 (HGL1) against asexual blood stage Plasmodium falciparum ,using a nano luciferase reporter read-out” (2022).

Screen size: about 150,000 compounds; about 540 (0.36%) showed an effect of 50% or more. This is one part of the list.

For orientation: % Inhibition means the change of the read-out against control, counted positive when it falls.

This test has as its system Plasmodium falciparum. Put plainly: Primary screen in NF54 nanoGlo assay, in single point, at 2uM, 72h; a lower Z score goes with more inhibition. Type of test: functional, Erythrocyte. The conditions noted are these: timepoint 72 hour.
As for `Cc1cc(N2C(=O)CCS2(=O)=O)ccc1S(=O)(=O)NC1CCCC1`, the “% Inhibition” value is given as 33% and the Z score was -1.32.

Turning to `CCC1CN(c2nnnn2C2CC(C)OC(C)C2)CC(CC)O1` (stereo not drawn), the “% Inhibition” value is 1% and the Z score was -0.15.

With `CCc1nccn1C(C)CC(=O)N1CCNC(Cc2ccccc2)C1` (stereo not drawn), the “% Inhibition” value is listed as -11% and the Z score worked out at 1.17.

On to `O=C(Cc1cccs1)NCc1cnn2c1CCCC2`, for which the “% Inhibition” value is reported as 8% and the Z score is listed as -1.23.

`COCc1cccc(C(=O)N2CCCCC[C@H]2c2noc(-c3cnn(C)c3)n2)c1`: the “% Inhibition” value is given as -4% and the Z score amounted to 0.5.

For `Nc1cc(Br)c(C(F)(F)F)cc1NC(=O)C(F)(F)F`, the “% Inhibition” value worked out at 36% and the Z score is listed as -4.67.

Turning to `CCOc1cc(CN2CC[C@H](c3ccc(F)cc3)[C@@H](O)C2)ccc1O`, the “% Inhibition” value is on record as 14% and the Z score is -1.79.

As to `COCCn1cc(NC(=O)Nc2cnn(CC(F)F)c2)cn1`, the “% Inhibition” value is on record as -16% and the Z score was 1.61.

For the compound `CCN1CCN(S(=O)(=O)c2cc(-c3ccc(=O)[nH]n3)cc(C)c2C)CC1`, the “% Inhibition” value was -2% and the Z score was found to be 0.26.

Take `O=C(COc1ccccc1)Nc1cc(-n2cncn2)ncn1`: the “% Inhibition” value is -16% and the Z score is 2.75.

Turning to `Cc1ccc(-c2noc([C@@H]3CCCCN3)n2)cc1`, the “% Inhibition” value turned out to be 31% and the Z score was -3.54.

`Cc1cccc(NC(=O)CCC(=O)OCC(F)(F)C(F)F)c1C`: the “% Inhibition” value is listed as 37% and the Z score is given as -5.37.

For `C[C@@H](CNC(=O)c1cnc(Cc2c(Cl)cccc2Cl)nc1O)n1ccnc1`, the “% Inhibition” value is on record as -4% and the Z score amounted to 0.62.

Turning to `Cc1ccc(OC2Cc3ccccc3C2)nn1`, the “% Inhibition” value was -7% and the Z score is reported as 1.06.

For `O=C(O)c1nc2ccccc2nc1C1CC1`, the “% Inhibition” value is 2% and the Z score is on record as -0.22.

For `FCC(CF)NCc1cn(C2CCCC2)nc1-c1ccccn1`, the “% Inhibition” value is on record as -12% and the Z score is reported as 1.88.

On to `O=C(NOC1CCCCO1)C1CC12CCOCC2` (stereo not drawn), for which the “% Inhibition” value is listed as -10% and the Z score worked out at 1.04.

With `O=C(NC[C@H]1Cc2ccccc2CO1)Nc1cccs1`, the “% Inhibition” value was -12% and the Z score is 2.01.

In the case of `Cc1nccn1CCNC(=O)C(=O)NC(C)(C)C`, the “% Inhibition” value is -18% and the Z score is reported as 2.66.

As for `Cc1cc(F)cc(NC(=O)NO[C@@H]2CCCCO2)c1`, the “% Inhibition” value is 4% and the Z score is -0.45.

On to `CN(CC1CC1)c1nnc([C@H]2CCCO2)n1Cc1cccs1`, for which the “% Inhibition” value was -7% and the Z score came to 1.32.

With `CCOc1ccc(C(=O)N2CC[C@H](n3cnnc3CC)C2)cc1OCC`, the “% Inhibition” value is on record as -10% and the Z score came out at 1.66.

Regarding `CN1C(=O)C[C@H](C(=O)NCCc2cc[nH]n2)C1(C)C`, the “% Inhibition” value is reported as -8% and the Z score was determined as 1.36.

In the case of `CCCCOCC(=O)NCc1nc2ccccn2c1Cl`, the “% Inhibition” value is given as -3% and the Z score was 0.39.

Regarding `CCC[C@@H](CNC(=O)c1sccc1Cl)N(C)C`, the “% Inhibition” value was -11% and the Z score stood at 1.68.

In the case of `Cc1n[nH]c(C)c1CC(=O)N1CCCC(C)C1C(=O)OC(C)(C)C` (stereo not drawn), the “% Inhibition” value was -5% and the Z score amounted to 0.63.

With `COc1cccc(-c2nc3ccc(C(=O)N[C@H]4CCOC(C)(C)C4)cc3o2)c1`, the “% Inhibition” value was -5% and the Z score is 0.6.

Turning to `COc1ccc(Br)cc1CN1CCN(Cc2cccn2C)CC1`, the “% Inhibition” value is on record as -11% and the Z score turned out to be 1.45.

For the compound `Cc1nc(-c2cccc(C(F)(F)F)c2)c(N)c(N2CCOCC2)n1`, the “% Inhibition” value stood at 9% and the Z score was -1.2.

In the case of `Cc1ccc2[nH]cc(-c3ccc(CS(C)(=O)=O)cn3)c2c1`, the “% Inhibition” value is given as -15% and the Z score is reported as 1.94.

In the case of `Cc1ccc(C/N=C2\C(c3ccc(N(C)C)cc3)=Nc3ncnn32)cc1`, the “% Inhibition” value is -2% and the Z score was 0.25.

With `COc1cccc2sc(N3CC(C(=O)NC4CCCC4)C3)nc12`, the “% Inhibition” value is -9% and the Z score came out at 1.76.

For `Cc1cc2c(cc1C)N(C(=O)[C@H](Cc1ccccc1)N1C(=O)c3ccccc3C1=O)C(C)(C)c1ssc(=S)c1-2`, the “% Inhibition” value worked out at 5% and the Z score is -0.58.

Regarding `Cc1c(C(=O)N2CCC[C@H]2C(=O)Nc2cc(Cl)cc(Cl)c2)cnn1C`, the “% Inhibition” value is 2% and the Z score is -0.35.

Consider `CC(C)c1noc(-c2ccc(-c3ccc4c(c3)OCO4)nc2)n1`, for which the “% Inhibition” value was found to be 3% and the Z score is -0.47.

Consider `O=C(c1cn2cccnc2n1)N1CC[C@@]12CCOC2`, for which the “% Inhibition” value is reported as 9% and the Z score is -1.09.

In the case of `NS(=O)(=O)C[C@H]1CCCN(Cc2csc3c(F)cccc23)C1`, the “% Inhibition” value is recorded as -1% and the Z score is listed as 0.09.

Take `Cc1cccc(NC(=O)N2CCCCC[C@H]2c2ccccc2Cl)c1`: the “% Inhibition” value was 3% and the Z score is reported as -0.66.

For the compound `COCCn1nnnc1[C@@H]1CN(C(=O)c2cc(C)n3nc(C)cc3n2)CCO1`, the “% Inhibition” value was -6% and the Z score is reported as 1.25.

Take `Cc1ccnc2nc(C(=O)OC[C@H]3CCCO3)nn12`: the “% Inhibition” value was 9% and the Z score was -1.18.

For `COc1cc(Cn2ccnc2C2CCN(C)CC2)cc(OC)c1OC`, the “% Inhibition” value was found to be 11% and the Z score was -1.21.

For the compound `O=C(Nc1ccccc1)N1CCC2(CC1)C[C@@H](N1CCN(c3ccccc3)CC1)CCO2`, the “% Inhibition” value is listed as -24% and the Z score was found to be 2.53.

In the case of `COCCN1C[C@]2(CCCN(C(=O)c3cnc(C)nc3C)C2)CCC1=O`, the “% Inhibition” value was -4% and the Z score worked out at 0.68.

As to `CO[C@@H]1CCN(C(=O)Nc2ccnn2Cc2ccc(Cl)s2)C1`, the “% Inhibition” value was -4% and the Z score was 0.76.
